PubChem BioAssay AID1345083 (National Center for Advancing Translational Sciences (NCATS), 2018)
Out of some 94,000 compounds screened, about 6,200 (6.6%) were called active. The shares of active, inactive and inconclusive entries below differ from those in the screen. Calls follow the shape of the dose curve; as a rule, active = well fitted inhibition curve with a large enough effect; inconclusive = small, poorly fitted or top-dose-only effect; inactive = flat fitted curve, though single readings scatter. Potencies beside an inconclusive call are fits to weak or partial responses and may not hold up.

Assay: Cytotoxic Profiling in HEK 293 Cell Line of Diverse Libraries Using Quantitative High-Throughput Screening; also: nearly all actives have a fitted effect of over 60% in size
Conditions: HEK 293 viability, ATP luminescence (CellTiter-Glo), 48-72 h; series mostly up to 115 µM
Summary of the method: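 Pintool-delivered compounds were incubated with HEK 293 cells (250 cells/well) at 37 degree Celsius for 48 or 72 hr. ATP-dependent luminescence (CellTiter-Glo) then reported remaining viable cells.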
Potency is read from the fitted curve at half-maximal effect; tags tell the direction and shape of the fitted curve.

| Compound | Potency |
| --- | --- |
| COc1ccc(-c2ccnc(N[C@H]3CO[C@H]4[C@@H]3OC[C@@H]4NS(=O)(=O)c3ccc(NC(C)=O)cc3)n2)cc1 | active: 39.8 µM |
| Cc1nn(-c2ccccc2)c2c1C(C)N(CC1CN(C(=O)c3ccccc3)C1)C2=O (stereo not drawn) | inconclusive: 56.2 µM [inhibitor, partial curve, poor fit] |
| COc1ccccc1C(=O)Nc1ccc2ncnc(N3CCCCC3)c2c1 | active: 39.8 µM |
| COCCN(C)C(=O)c1ccc2c(c1)NC(C)(COc1ccc3[nH]ccc3c1)CO2 (stereo not drawn) | inconclusive: 89.1 µM [inhibitor, partial curve] |
| Cn1ccc(C(=O)N2CCC3(CC2)OC(=O)N(Cc2ccccc2)C3(C)c2ccccc2)n1 (stereo not drawn) | inactive |
| O=C(O)CCC(=O)N1C[C@@H]2OCC(=O)N(c3ccccc3)[C@@H]2C1 | inactive |
| Cc1ccc(CN2CCc3nc(C4CC4)nc(-c4ccc(O)cc4)c3C2)cc1 | inconclusive: 50.1 µM [inhibitor, partial curve, poor fit] |
| COc1cc(=O)n2c(c1C(=O)Nc1cc(C(F)(F)F)ccc1Cl)CCCC2 | inconclusive: 12.6 µM [inhibitor, full curve, poor fit] |
| CCOc1ccc(CC(=O)N2CCCN(C)c3ccccc32)cc1 | active: 89.1 µM |
| CCOc1ccc(C(=O)N2CCC(n3cc(-c4nc(-c5ccccc5)no4)nn3)CC2)cc1 | inconclusive: 7.08 µM [inhibitor, full curve, poor fit] |
| O=C(NCc1cccc(Cl)c1)c1ccc2nc(-c3ccccn3)oc2c1 | inconclusive: 50.1 µM [inhibitor, partial curve, poor fit] |
| CC(c1ccc(F)cc1)N1Cc2cc(NC(=O)COc3ccccc3)ccc2OCC1=O (stereo not drawn) | inconclusive: 50.1 µM [inhibitor, partial curve, poor fit] |
| Cc1cccc(NC(=O)Nc2ccc(C)n(CC(=O)NCCN3CCCCC3)c2=O)c1 | inconclusive: 100 µM [inhibitor, single point] |
| COCCNC(=O)c1nc(-c2ccc(F)cc2)c2ccccn12 | inconclusive: 70.8 µM [inhibitor, partial curve] |
| COc1ccc(-c2cccc(C(=O)N3CCN(C(=O)c4ccc(F)cc4)CC3)c2)nn1 | inactive |
| Nc1nccc(N2CCCC(Cc3ccccc3F)(C(=O)O)C2)n1 (stereo not drawn) | inactive |
| Cc1cc(C(=O)Nc2ccc([C@H]3OCC(=O)N(CC(=O)N(C)C)[C@@H]3CO)cc2)nn1C | inactive |
| CCc1csc(CNc2cc(C3CC(O)C3)nc(N)n2)n1 (stereo not drawn) | inconclusive: 44.7 µM [inhibitor, partial curve] |
| CCCCNC(=O)c1cccc2c1CCN2S(=O)(=O)c1ccc(C)cc1 | active: 17.8 µM |
| COc1ccc(F)cc1-c1ccc(CN2CCC(NC(=O)c3ccncc3)C2)cc1 (stereo not drawn) | inconclusive: 50.1 µM [inhibitor, partial curve, poor fit] |
| COc1ccc(-c2nc(C(=O)N3CCOCC3)n3ccccc23)cc1 | inconclusive: 126 µM [inhibitor, single point] |

| Compound | Potency |
| --- | --- |
| COc1cccc(C2Cn3nnc(-c4nc(-c5ccccc5C)no4)c3CO2)c1 (stereo not drawn) | inconclusive: 89.1 µM [inhibitor, partial curve, poor fit] |
| COc1cccc(C(=O)NC2CCN(c3cc(-c4cccs4)[nH]n3)CC2)c1 | inconclusive: 56.2 µM [inhibitor, partial curve, poor fit] |
| COc1ccccc1CN1Cc2cc(NS(=O)(=O)c3ccc(C)c(F)c3)ccc2OC(C)C1=O (stereo not drawn) | inconclusive: 25.1 µM [inhibitor, full curve] |
| COc1ccc2cc(CN3CCC(N(C)C)C3)c(-c3cccc(C)c3)nc2c1 (stereo not drawn) | inconclusive: 79.4 µM [inhibitor, partial curve, poor fit] |
| Cc1nc(-c2cccc(Cl)c2)n(CC(=O)NC(C)C)c(=O)c1CCO | inconclusive: 100 µM [inhibitor, single point] |
| COc1cccc(C(=O)N2CCCC(n3cc(-c4nc(-c5ccccc5)no4)nn3)C2)c1 (stereo not drawn) | inconclusive: 50.1 µM [inhibitor, partial curve, poor fit] |
| CN(C)CC1(O)CCCN(Cc2ccc(-c3ccc(Cl)cc3)o2)C1 (stereo not drawn) | inconclusive: 50.1 µM [inhibitor, partial curve, poor fit] |
| COc1cccc(CN2CC[C@H]3C(=O)NCCCCCCN(Cc4ccncc4)[C@@H]3C2)c1OC | inactive |
| CC(C)c1ccc(-c2nc(C3CC(=O)N(c4ccc(Cl)cc4)C3)no2)cc1 (stereo not drawn) | inconclusive: 35.5 µM [inhibitor, full curve, poor fit] |
| C#CCNC(=O)c1nc(-c2cc(Cl)cc(Cl)c2)c2ccccn12 | active: 63.1 µM |
| O=C(C1CCCN1C(=O)c1ccc(F)cc1)N1CCC(c2ccccc2)CC1 (stereo not drawn) | inconclusive: 50.1 µM [inhibitor, partial curve, poor fit] |
| COc1ccc(C2Cn3nnc(-c4noc(-c5ccccc5C)n4)c3CO2)cc1 (stereo not drawn) | inactive |
| Cc1ccc(CNC(=O)CCC[C@@H]2[C@H]3CCCN4CCC[C@@H](CN2Cc2ccccc2)[C@@H]34)o1 | inconclusive: 89.1 µM [inhibitor, single point] |
| CC(C)c1cccc(NC(=O)c2ccc(Cn3ccn4nc5c(c4c3=O)CCCC5)cc2)c1 | inconclusive: 20 µM [inhibitor, full curve] |
| CN1C(=O)c2cccn2CC1CNC(=O)c1cc2ccccc2[nH]1 (stereo not drawn) | inactive |
| CN(C)C(=O)N1CCN(C(=O)c2nc3cccnc3n(C3CC3)c2=O)CC1 | inactive |
| CNC(=O)c1cc(C2CC2)nc2onc(C3CCCN3C(=O)c3cccc(Cl)c3)c12 (stereo not drawn) | inconclusive: 89.1 µM [inhibitor, single point] |
| O=C1NC(=NC2CCCC2)C2(CCCN(Cc3ccccc3)C2)N1c1cccnc1 (stereo not drawn) | inactive |
| Cc1cnc(C(=O)N2C[C@@H](COc3ccccc3)[C@H](C(N)=O)C2)cn1 | inactive |
| CC1=C[C@@H](CNS(=O)(=O)c2cccs2)[C@H](C(C)C)C[C@H]1CC(=O)NCCN1CCOCC1 | inactive |
| NC(=O)c1ccc(CC2CCN(S(=O)(=O)c3ccc4c(c3)CCC4)CC2)cc1 | inconclusive: 56.2 µM [inhibitor, partial curve, poor fit] |

| Compound | Potency |
| --- | --- |
| N#Cc1ccc(-c2nc(C3CC(=O)N(c4ccc(Cl)cc4)C3)no2)cc1 (stereo not drawn) | inconclusive: 70.8 µM [inhibitor, partial curve, poor fit] |
| COc1ccc(-c2cn3c(n2)CO[C@@H](CNCc2ccccc2OC)C3)cc1 | inconclusive: 100 µM [inhibitor, partial curve, poor fit] |
| COCC(=O)N1CCCC(C(=O)N2CCC(N3CCCC3=O)CC2)C1 (stereo not drawn) | inactive |
| COc1ccc([C@H]2C[C@@H](O)[C@@H](O)[C@@H]2NCc2cnc[nH]2)cc1 | inactive |
| O=C(NCc1cc(-c2ccccc2Cl)no1)C1CC2(CCNCC2)CN1 (stereo not drawn) | inactive |
| COc1ccc(Nc2ccnc(N3CCC(NC(=O)Cc4cccc(Cl)c4)CC3)n2)cc1 | active: 25.1 µM |
| CSCC(=O)N[C@H]1CCN2C(=O)c3cc(-c4ccc(SC)cc4)ccc3NC(=O)[C@H]12 | inactive |
| CCn1nc(C)cc1C(=O)N1Cc2cnn(Cc3ccc(F)cc3)c2C1 | inconclusive: 50.1 µM [inhibitor, partial curve] |
| CSCC(=O)N[C@H]1CCN2C(=O)c3cc(/C=C/c4ccccc4)ccc3NC(=O)[C@H]12 | inconclusive: 126 µM [inhibitor, single point] |
| COc1ccc(CNC(=O)N2CCC3(CC2)CC(Cc2nc(C4CC4)no2)CCO3)cc1 (stereo not drawn) | inconclusive: 56.2 µM [inhibitor, partial curve, poor fit] |
| Cc1ccccc1CN1CCOc2cc([S+](=O)([O-])N(C)C)ccc2C1 | inconclusive: 100 µM [inhibitor, partial curve] |
| CC(C)C(=O)N1CCCCCCN(C)C(=O)[C@@H]2CCC[C@@H]21 | inactive |
| O=C(NCCc1ccccc1)N1CCCC(c2noc(COc3ccccc3)n2)C1 (stereo not drawn) | inconclusive: 50.1 µM [inhibitor, partial curve, poor fit] |
| Cn1ccc2c(C(=O)NCC3CCC(=O)N3)nc(-c3ccccc3C#N)cc21 (stereo not drawn) | inconclusive: 79.4 µM [inhibitor, partial curve, poor fit] |
| CCOc1cc(=O)n2c(c1C(=O)Nc1ccc(Cl)cc1Cl)CCCC2 | inconclusive: 10 µM [inhibitor, full curve, poor fit] |
| O=C(C[C@@H]1C[C@H]2O[C@H](CNCc3ccccc3OC(F)(F)F)[C@@H](O)[C@H]2O1)N1CCC(F)(F)C1 | inactive |
| CCCCCNC(=O)c1nc2cccnc2n(Cc2ccc(OC)cc2)c1=O | inconclusive: 79.4 µM [inhibitor, partial curve, poor fit] |
| Cc1cccnc1CN1C[C@@H](F)[C@@H](OCc2nc3ccc(F)cc3[nH]2)C1 | inconclusive: 79.4 µM [inhibitor, partial curve] |
| O=c1c2c(n(Cc3ccccc3)n1-c1ccccc1)CN(Cc1ccc3c(c1)CCO3)CC2 | inconclusive: 56.2 µM [inhibitor, partial curve, poor fit] |
| CC1=NS(=O)(=O)N(C)C=C1C(=O)OCc1nc(-c2cccc(C)c2)no1 | inconclusive: 79.4 µM [inhibitor, partial curve, poor fit] |
| Cc1noc([C@@H]2CN(Cc3ccc(OC(F)(F)F)cc3)C[C@H]2CO)n1 | inconclusive: 44.7 µM [inhibitor, partial curve, poor fit] |
